Results as given in PubChem BioAssay AID651820 (National Center for Advancing Translational Sciences (NCATS), 2012).
The whole screen tested about 340,000 compounds, of which about 12,000 (3.5%) were called active. Inconclusive results, whose numbers are uncertain, are shown with a selection of clear calls. Calls follow the shape of the dose curve; as a rule, active = well fitted inhibition curve with a large enough effect; inconclusive = small, poorly fitted or top-dose-only effect, or another doubt; inactive = no such curve, though single readings can be large or run the other way. Potencies of inconclusive entries are left out as doubtful fits.

Assay: qHTS Assay for Inhibitors of Hepatitis C Virus (HCV)
Settings: Huh7.5.1 HCVcc-Cre (HCVcc is cell-culture hepatitis C virus) infection, luciferase reporter, 44 h; activity change, negative = inhibition: at 41.8 µM (top of the series) unless noted
In short: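 A cell-based infection assay in which seeded cells (1,000 per well) receive test compound after 4 h, are inoculated with HCVcc-Cre at approximately 0.5 moi, and are incubated 44 h before luminescence detection.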
% is scaled to controls: 0 for no effect and ±100 for the full control effect; potency is read from the fitted curve at half-maximal effect; tags tell the direction and shape of the fitted curve.

Row | SMILES | Potency | activity change, negative = inhibition
1 | C=CCc1cc(/C=C2/NC(=O)N(CC(=O)OC)C2=O)cc(OC)c1O | inconclusive [inhibitor, single point] | 
2 | Cc1nnsc1S(=O)c1ccc(Cl)cc1 (stereo unspecified) | inconclusive [inhibitor, single point] | 
3 | Cc1c(-c2cccc(Cl)c2)nc2ccccc2c1C(=O)OC/C(O)=C(\C#N)c1nc2ccccc2[nH]1 | active: 8.91 µM | 
4 | CC(=O)N1CCN(S(=O)(=O)c2cccc(C(=O)NNC(=O)COc3ccc(F)cc3)c2)CC1 | inactive | 
5 | C=CC[n+]1c(-c2ccc(C)cc2)csc1NNC(=O)Nc1ccccc1 | active: 5.62 µM | 
6 | Cc1ccc(-n2nc3c(=O)n(CCCC(=O)NCCc4ccccc4)nc(C)c3c2C)cc1 | inconclusive [inhibitor, full curve, poor fit] | 
7 | CCOC(=O)C1(Cc2cccc(OC)c2)CCN(Cc2cccc3c2OCO3)CC1 | inconclusive [inhibitor, single point] | 
8 | C[C@H]1CN=C(N(C)C)N1CCc1cccc(F)c1 | inconclusive [inhibitor, single point] | 
9 | CN(C)S(=O)(=O)n1cc(/C=C(\NC(=O)c2ccccc2)C(=O)NCCCN2CCOCC2)c2ccccc21 | inconclusive [inhibitor, single point] | 
10 | CCOc1cccc2sc(N3CCN(C(=O)c4ccc5ncsc5c4)CC3)nc12 | inconclusive [inhibitor, single point] | 
11 | COc1ccc(N/N=C(/C(N)=O)C2=NC(C)(C)Cc3ccccc32)cc1 | inconclusive [inhibitor, partial curve] | 
12 | CC1CCCN(c2ccc(C(=O)NCc3ccco3)cc2[N+](=O)[O-])C1 (stereo unspecified) | inconclusive [inhibitor, full curve] | 
13 | COc1ccc(CNc2cc(NCCCO)c([N+](=O)[O-])c3nonc23)cc1 | inconclusive [inhibitor, single point] | 
14 | CC(C)(O)c1cc2ccc(C#Cc3ccsc3)cc2c(=O)o1 | inconclusive [inhibitor, single point] | 
15 | CCc1ccc2[nH]c(=O)c(CN(CCN(CC)CC)C(=O)Nc3ccccc3OC)cc2c1 | inactive | 
16 | CC(=O)N1CCSc2ccc(S(=O)(=O)NCCc3ccc(Cl)cc3)cc21 | active: 11.2 µM | 
17 | CCN(c1ccccc1)S(=O)(=O)c1ccc(C(=O)NCc2ccco2)cc1 | inconclusive [inhibitor, single point] | 
18 | COc1ccc(NC(=O)N2CCCC(CCC(=O)N(C)CCc3ccccn3)C2)cc1 (stereo unspecified) | inconclusive [inhibitor, single point] | 
19 | COc1ccc(CN(C(=O)c2cccs2)c2nccs2)cc1OC | inconclusive [inhibitor, single point] | 
20 | COc1ccc(NC(=O)CSCC(=O)N2CCN(c3cccc(C(F)(F)F)c3)CC2)cc1 | inconclusive [inhibitor, full curve] | 
21 | C=C1C[C@@]23CCC4[C@@](C)(CCC[C@@]4(C)C(=O)OC)C2CC[C@]1(OC(C)=O)C3 (stereo partly specified) | inconclusive [inhibitor, partial curve] | 
22 | Cc1nc2ccc(NC(=O)c3cccnc3)cc2s1 | inconclusive [inhibitor, single point] | 

Row | SMILES | Potency | activity change, negative = inhibition
23 | C=CC(=O)OCCOCCOCCOCCOC(=O)C=C | inconclusive [inhibitor, partial curve] | 
24 | CNC(=S)N(CCc1c(C)[nH]c2ccc(Cl)cc12)Cc1cc(OC)c(OC)c(OC)c1 | inconclusive [inhibitor, partial curve] | 
25 | COc1cc(C(=O)NCCOc2cccc(C)c2)c(Br)c(OC)c1OC | inconclusive [inhibitor, partial curve] | 
26 | O=C(c1ccc(F)cc1)C(CN1CCOCC1)c1ccccc1 (stereo unspecified) | active: 11.2 µM | 
27 | COc1cc2c(cc1OC)[C@H]1C(=O)c3ccc4c(c3O[C@H]1CO2)C[C@@H](C(C)(C)O)O4 | inconclusive [inhibitor, single point] | 
28 | CC(C)=CCN1CCC(n2nccc2NC(=O)c2ccccc2Cl)CC1 | inconclusive [inhibitor, single point] | 
29 | CCN(CC)S(=O)(=O)c1cccc(C(=O)Nc2ccc(S(=O)(=O)NC3=NCCCCC3)cc2)c1 | inactive | 
30 | CCOC(=O)c1c(-c2ccsc2)csc1N | inactive | 
31 | CCOc1ccc2nc(NC(=O)CSc3cn[nH]n3)sc2c1 | inconclusive [inhibitor, single point] | 
32 | CN(CC(=O)Nc1ccc(F)cc1)C(=O)c1ccccc1OCc1ccc(F)cc1 | inconclusive [inhibitor, partial curve, poor fit] | 
33 | COc1cccc(C(=O)Nc2cc3c(cc2N2CCCC2)n(C)c(=O)n3C)c1 | inconclusive [inhibitor, full curve] | 
34 | CCCOc1ccccc1N/C(=N\S(=O)(=O)c1ccc(C)cc1)Nc1nc(C)cc(C)n1 | inconclusive [inhibitor, single point] | 
35 | COc1cc(C(=O)Nc2ccc3c(c2)Cc2cc(NC(=O)c4cc(OC)c(OC)c(OC)c4)ccc2-3)cc(OC)c1OC | inconclusive [inhibitor, partial curve] | 
36 | CCOc1ccc2nc(NC(=O)CN3C(=O)C4CCCCC4C3=O)sc2c1 (stereo unspecified) | inactive | 
37 | Cc1cccc(C)c1N1CCN(C(=O)Nc2ccc3c(c2)OCCO3)CC1 | inconclusive [inhibitor, single point] | 
38 | CC1CCC(NC(=O)CCNC(=O)c2ccccc2)CC1 (stereo unspecified) | inactive | 
39 | Brc1cccc(-c2nnc3sc(CN4CCC5(CC4)OCCO5)cn23)c1 | inconclusive [inhibitor, single point] | 
40 | CC1CCCN(CCCOc2ccccc2-c2ccccc2)C1 (stereo unspecified) | inconclusive [inhibitor, partial curve] | 
41 | COc1cccc(NC(=O)CN(C)C(=O)C2CC(=O)N(CCc3ccc(OC)c(OC)c3)C2)c1 (stereo unspecified) | inactive | 
42 | CC(=C/c1ccccc1)/C=N/NC(=O)c1nnn(-c2nonc2N)c1CN1CCC(C)CC1 | inconclusive [inhibitor, partial curve] | 
43 | CN(Cc1cccc(F)c1)CC(O)COCc1ccccc1Cl (stereo unspecified) | inactive | 
44 | Cc1ccc(C)c2sc(NC(=O)c3ccc(N4CCCCC4)c([N+](=O)[O-])c3)nc12 | inconclusive [inhibitor, full curve] | 

Row | SMILES | Potency | activity change, negative = inhibition
45 | C=CCOc1ccc2ccccc2c1/C=N/O | inactive | 
46 | CC(CC(=O)Nc1ccc(S(=O)(=O)Nc2ncccn2)cc1)c1ccccc1 (stereo unspecified) | inactive | 
47 | Cc1ccccc1OCCC(=O)OCC(=O)NC1CCCC1 |  | inconclusive: -68% [inhibitor]
48 | COc1cc(-c2cc(C(=O)Nc3cccc(C(C)=O)c3)c3ccccc3n2)cc(OC)c1OC | inconclusive [inhibitor, partial curve] | 
49 | Cc1cc(NC(=O)Nc2ccc(Cl)c(Cl)c2)n(-c2ccccc2)n1 | inconclusive [inhibitor, full curve] | 
50 | CCC(CC)C(=O)Nc1cc(C(=O)OC)cc(C(=O)OC)c1 | inconclusive [inhibitor, partial curve] | 
51 | COc1cccc(C(C(=O)NC(C)(C)C)N(C(=O)CCC(=O)Nc2cc(C)on2)C(C)(C)C)c1OC (stereo unspecified) | inactive | 
52 | O=C1NC2C(O)C(O)C(O)C(O)C2c2cc3c(c(O)c21)OCO3 (stereo unspecified) | inconclusive [inhibitor, partial curve, poor fit] | 
53 | O=C(Nc1ccnc(-c2ccncc2)n1)C1CC1 | inactive | 
54 | O=C(N/N=C/c1cccnc1)c1cccc(F)c1 | inactive | 
55 | CCCSc1cc(N2CCN(C)CC2)nc(-c2ccc(OC)cc2)n1 | active: 14.1 µM | 
56 | CC1CN(C(=O)COC(=O)[C@@H](NC(=O)c2ccccc2Cl)C(C)C)CC(C)O1 (stereo partly specified) | inactive | 
57 | CC(C)(C)C(=O)Nc1ccccc1C(=O)OCC(=O)c1ccc2c(c1)OCCO2 | inconclusive [inhibitor, single point] | 
58 | O=[N+]([O-])c1cccc(-c2ccc(/C=N/NC(=S)Nc3cccc(F)c3)o2)c1 | inconclusive [inhibitor, partial curve] | 
59 | CCOc1ccccc1N(C(=O)c1ccccc1Cl)C1=NC(C)(C)CS1 | inconclusive [inhibitor, single point] | 
60 | CC1(C)CC(=O)C2=C(C1)NC(SCC(=O)Nc1ccccc1)=C(C#N)C21CCCCC1 | inconclusive [inhibitor, single point] | 
61 | CN(C(=O)c1cccc(NC(=O)C2CCN(C(=O)OC(C)(C)C)CC2)c1)C1CCC1 | inconclusive [inhibitor, single point] | 
62 | COc1ccc(S(=O)(=O)Nc2ccc3c(c2)n(C)c(=O)n3C)cc1C | inconclusive [inhibitor, single point] | 
63 | CC(=O)c1ccc(N2CCN(C(=O)c3ccc4[nH]c(C)c(C)c4c3)CC2)cc1 | inconclusive [inhibitor, full curve, poor fit] | 
64 | CCOc1ccc(NC(=O)CN(C)C(=O)c2c(-c3ccccc3Cl)noc2C)cc1OCC | inconclusive [inhibitor, partial curve] | 
65 | NS(=O)(=O)c1ccc(CCNS(=O)(=O)Cc2ccc(Cl)cc2)cc1 | inactive | 
66 | CCOc1ccc(CN2CCN(S(=O)(=O)c3ccc(NC(C)=O)cc3)CC2)cc1 | inconclusive [inhibitor, single point] | 
